Data: patent publication US20070092504A1 (Pfizer, published 2007)

Molecular target: human PD-1 on human T cells (CD4+ T cells from PBMC; Jurkat T cells) (human, UniProt Q15116)
Assay: cell-based or functional assay

B1: human PD-L1.Ig (extracellular region of human PD-L1 fused to hinge-CH2-CH3 of murine Ig gamma 2a) (Fc fusion)
chain: not shown
notes: domain: hinge-CH2-CH3; also called PD-L1-Fc; hPD-L1.Fc
proliferation of human CD4+ T cells (3H-thymidine, 96 hours), anti-CD3 mAb/PD-L1.Ig beads relative to anti-CD3 mAb/control Ig beads: 69 % decrease
